Results on 14 molecules are retold here after article PMC12136788.

The list shows a part of the results.

B1: chr17:50110931:50111032:+|3pUTR|ENSG00000005882|unk|FALSE|unique (ssRNA)
RNA: GGGAGUUCUACAGUCCGACGAUCUGUGCCCAGACAUGUGUGCUCAGGGUGGCUUUCUCCCUAGGACCUUCUGUGUAUAUAGUUAGUUUUAUAACCCUGAAUGCCCCCACCCUUCCCCUAAGCACACAGGGGUUAAAGCUGUGUCAACAGAGGAUUGAGCAUCA
B2: chr6:133987709:133987810:+|3pUTR|ENSG00000028839|unk|FALSE|unique (ssRNA)
RNA: GGGAGUUCUACAGUCCGACGAUCAAUAACAAAUAGGAAUUUUUUUUCUUGCAGAUUAGAAAUAAAAACGUGUAUAUAAACUCUAGGGAACCAGACUAGAAGUUUAUAGAUAAAGGAUAAUGUUUUAUGUUGCUAAUUUAAUAUCAACAGAGGAUUGAGCAUCA
B3: ENSG00000131504:stop:overlap|stop_codon|ENSG00000131504|stop_codon|NA|stop_codon (ssRNA)
RNA: GGGAGUUCUACAGUCCGACGAUCAGGAGGAGGAGACCUUUAAAUUGCCAACAGGAAGGCCGGGUGUGCAGUCACAUCUCUGCUAGCUUCGGAGCUGACCAAGGAUGAUGCCAUGGCUGCUGUUCCUGCCAAGGUGUCCAAGAACAACAGAGGAUUGAGCAUCA
B4: chr10:96982068:96982170:+|CDS|ENSG00000196233|unk|total|mutant (ssRNA)
RNA: GGGAGUUCUACAGUCCGACGAUCUCAGCAUUGGCAUCAGAGGCAGUUUUCACUCCUAAGCAGACCCUUACAAUUCCAGCCCCCCGACAUACAGCCGAUGUGCAGCUUCCCAGAGAAGACAACCCUGAAGAACCCCGCAAGGAACAACAGAGGAUUGAGCAUCA
B5: chr6:21231557:21231658:+|3pUTR|ENSG00000145996|msi1|total|mutant (ssRNA)
RNA: GGGAGUUCUACAGUCCGACGAUCAAGCCGCUGGGAUUACAGGCAUGCGCCACCAAGCCCAGACAAUUUUUUUGUGUUUUCAGCCGAGACGGAGUUUCACCAUGUUGGCCAGGCCCGUCUCGAACUCCUGACCUCAAGUGAUCCCAACAGAGGAUUGAGCAUCA
B6: chr5:72207278:72207408:+|3pUTR|ENSG00000131711|msi1_unk|total|mutant (ssRNA)
RNA: GGGAGUUCUACAGUCCGACGAUCAGAGAACAAUGACCUCAUUUUAUUUUCUAUGUCCGUUAUUUAUUUCAAAAUUAACAUUUCCGUUGAUUUUUGUCUGAUAAGUCUAUGUUUUGCACUGCUAACUAUGAUGAGGGUUUAAAACAACAGAGGAUUGAGCAUCA
B7: chr19:7926739:7926850:-|3pUTR|ENSG00000104980|unk|total|mutant (ssRNA)
RNA: GGGAGUUCUACAGUCCGACGAUCAGGGUGGGACCCGGGACCCGCGGCUCAGUGGCCCGCCCGCCACGUCAGCCAAGCCACUUCCGGUCCAUUUUUUAAUUUUAACAGUGCUCUUCCAUCUUGUGCAUAAGCCUGAGAUUUGGACAACAGAGGAUUGAGCAUCA
B8: chr5:138184526:138184629:+|CDS|ENSG00000112984|unk|total|mutant (ssRNA)
RNA: GGGAGUUCUACAGUCCGACGAUCGUGCAUGCCCCACCUAUGCAACUGGGAUUCCCAUCCCUGCACUCGUUCAUCAAGGAACACCGUCUUCAGGUAUCCCCCAGCUCCGAGAAAGGGGCUAAGGCAGACACAGGCCUUGAUGAUCAACAGAGGAUUGAGCAUCA
B9: chr8:63210610:63210711:+|3pUTR|ENSG00000185728|msi1|FALSE|unique (ssRNA)
RNA: GGGAGUUCUACAGUCCGACGAUCCAUGAAGUAAAAAUUUAUUACUCUAGGUAUUCACUAGCUAAAUAAACAUAGUUCUUGUUUAGCAAGCAUAUGUUGUUCCUCAGCUCUUUUCUCCAGCUUUUGCAGUGUCCUGGCAUCCUUCAACAGAGGAUUGAGCAUCA
B10: chr1:226632358:226632459:-|3pUTR|ENSG00000143772|msi1|FALSE|unique (ssRNA)
RNA: GGGAGUUCUACAGUCCGACGAUCUCAAGCCAUUUUGCCACUCGCUUCCCUGCCAUCUGGCCCUUCCCUUUGUCUCAGUGGGAUAGAUGGAUUGUGAAAUGGAAUCUCCCAGAACCCCUGCCCUGGCAGCCUGGAAGACCGUGCCAACAGAGGAUUGAGCAUCA
B11: chr15:65118290:65118391:-|3pUTR|ENSG00000090470|msi1|total|mutant (ssRNA)
RNA: GGGAGUUCUACAGUCCGACGAUCACUUCCUUGUGUGUUGAUGGGUAAGUACACUCAAACACUGAAUACAGGUGUGUGAUGGGCCGAUUUCACAGCCCUUCUACUAACCGUGAGUGUGAAGGCAAGCUUGAUGCAAAACCUCCUCAACAGAGGAUUGAGCAUCA
B12: chr2:33399154:33399255:+|3pUTR|ENSG00000049323|msi1|total|mutant (ssRNA)
RNA: GGGAGUUCUACAGUCCGACGAUCAAGUACUUUAUAUUUUCAGUGUUUUGUCUGAUUUUAAUGUCCGUUCUCCGCCAAGCUGCCCGCAGGUGUUAAUUGGAUCCCUUUCCUUCACUGAAAUGGAAGAGUUUAUAAGCUUACGUUCAACAGAGGAUUGAGCAUCA
B13: ENSG00000124766:be:win_901|CDS|ENSG00000124766|bound_else_gene|NA|bound_elsewhere_windowed (ssRNA)
RNA: GGGAGUUCUACAGUCCGACGAUCGGCCUGGGCACGUCGUCGUCGCCCGUGGGCGGCGUGGGCGCGGGAGCCGACCCCAGCGACCCCCUGGGCCUGUACGAGGAGGAGGGCGCGGGCUGCUCGCCCGACGCGCCCAGCCUGAGCCAACAGAGGAUUGAGCAUCA
B14: chr6:89631235:89631336:+|3pUTR|ENSG00000135299|msi1|FALSE|unique (ssRNA)
RNA: GGGAGUUCUACAGUCCGACGAUCUGAAGUUUGAAAGCUCAGAUUAAGCAAGCCAUGCCAAGAAACUGGACGAUGUGUAAGCCUAGACUCUAAAAUUCAAGAUGUGUGAAAUAAUAUAAGUCAAAAGCAAGAAAAACGUAAUCCCAACAGAGGAUUGAGCAUCA

The target in the assay is T1, UNK ZnF1-6 (called full-length) (human, UniProt Q9C0B0 30-357).
T1 sequence: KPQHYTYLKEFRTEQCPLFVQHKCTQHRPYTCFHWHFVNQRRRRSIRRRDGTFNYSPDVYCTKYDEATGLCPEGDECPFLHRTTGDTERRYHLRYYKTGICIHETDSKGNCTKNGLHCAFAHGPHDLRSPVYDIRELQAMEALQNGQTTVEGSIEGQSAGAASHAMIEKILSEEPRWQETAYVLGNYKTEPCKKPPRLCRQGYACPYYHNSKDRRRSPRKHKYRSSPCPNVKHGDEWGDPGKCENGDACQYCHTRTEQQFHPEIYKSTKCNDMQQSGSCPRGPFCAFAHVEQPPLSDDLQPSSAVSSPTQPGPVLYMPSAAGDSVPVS
The assay is described as follows: nsRBNS (natural sequence RNA bind-n-seq); RBNS binding buffer (assumed for nsRBNS): 25 mM Tris pH 7.5, 150 mM KCl, 3 mM MgCl2, 0.01% Triton X-100, 500 ug/ml BSA, 20 U/ml SUPERase-In, 4 C; UNK is unkempt and MSI1 is Musashi-1; names of the RNAs are library labels; protein concentration not given here; high values mean tight binding.
As to B1, the binding signal was 6.79 enrichment R. Under B2 stands 2.44 enrichment R; under B3, 1.71 enrichment R; under B4, 0.952 enrichment R. Under B5 stands 0.552 enrichment R; under B6, 0.579 enrichment R; under B7, 0.743 enrichment R. The value for B8 was 0.469 enrichment R. Turning to B9, the binding signal was found to be 2.01 enrichment R.

Consider B10, for which the binding signal stood at 2.42 enrichment R.

Molecule B11 displayed a binding signal of 0.318 enrichment R. Under B12 stands 0.381 enrichment R; under B13, 6.13 enrichment R. B14 displayed a binding signal of 0.227 enrichment R.
